# Assay results as given in PubChem BioAssay (NCATS).
# The inconclusive results got no clear call from the source; some entries with a clear call stand among them for comparison. For some assays here: No potency is given beside an inconclusive call; the fits are too rough. The source made the active and inactive calls. Unless noted, the call rests on the fitted dose curve; in most records, active means well fitted curve in the direction sought with a large enough effect; inconclusive means small, poorly fitted or top-dose-only effect, or another doubt; inactive means no such curve, though single readings can be large; an effect the other way counts as inactive or inconclusive.
# Key:
# [1] = tested on: Zika virus NS2B-NS3 protease (linked construct); assay: Primary screen NINDS Rhodamine qHTS for Zika virus inhibitors (AID 1347160); further: nearly all actives have a fitted effect of over 55% in size; further: potency means the concentration at half of the fitted maximal effect
# How it was run: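 Kinetic fluorescence (Ex 480 nm, Em 540 nm) over 15 min with 1.5 microM Rhodamine110 peptide and 25 nM linked protease.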
# [2] = A2780 Cisplatin Sensitive Ovarian Cancer Cell Toxicity qHTS against the NCATS CANVASS Library (AID 1347353); further: potency means the concentration at half of the fitted maximal effect; nearly all actives have a fitted effect of over 60% in size
# How it was run: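 A2780 cells, 750/well, settled 4 h at 37 °C, then treated with an 11-point compound series for 72 h. Viability was read as ATPLite luminescence after 10 min at room temperature, with bortezomib as control.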
# [3] = HEK-293 Cancer Cell Toxicity qHTS against the NCATS CANVASS Library (AID 1347355); further: on the % scale 0 is the no-effect control and ±100 the full control effect; nearly all actives have a fitted effect of over 65% in size
# How it was run: (§1)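 Cells at 1000/well were given compound 4 h after plating in an 11-point series. Viability was read by CellTiter-Glo luminescence after 72 h at 37 degrees C.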
# [4] = HEK293 12hr Apoptosis Induction qHTS against the NCATS CANVASS Library (AID 1347361); further: 0% is about no effect
# How it was run: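 Read-out: Caspase-Glo 3/7 luminescence (DEVD substrate), 15 min RT. Preceded by 12 h compound exposure of HEK293, 500 cells/well, 11-pt qHTS titration; doxorubicin titration as control.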
# [5] = G06 Cancer Cell Toxicity qHTS against the NCATS CANVASS Library (AID 1347368); further: nearly all actives have a fitted effect of over 60% in size; further: potency means the concentration at half of the fitted maximal effect; on activity change, negative = cytotoxic: on the % scale 0 is the no-effect control and ±100 the full control effect
# How it was run: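 G06 dog glioma cells, 500 per well, exposed 72 hr at 37C, 5% CO2 to compounds in an 11-point series. Cytotoxicity read as ATP content by CellTiterGlo luminescence.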
# [6] = qHTS for Inflammasome Signaling Inhibitors: IL-1-beta AlphaLISA screen against the NCATS CANVASS Library (AID 1347379);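 further: human THP-1 cells primed with LPS then triggered with ATP; secreted IL-1B measured as AlphaLISA emission at 615 nm; potency means the concentration at half of the fitted maximal effect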
# How it was run: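 THP-1 cells pretreated 1 hr with compound (up to 57.5 uM final), then stimulated with LPS (250 ng/mL final) and ATP (1.25 mM final). Secreted IL-1B measured by AlphaLISA after 16 hr; glyburide as positive control.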
# [7] = qHTS for Antimalaria activity screened against the NCATS CANVASS Library (AID 1347380); further: potency means the concentration at half of the fitted maximal effect; nearly all actives have a fitted effect of over 40% in size
# How it was run: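 Red blood cells infected with P. falciparum Dd2 (2.5% hematocrit final, 0.3% parasitemia) were exposed to compounds in an 11-point qHTS series for 72 hr at 37C under 5% O2 and 5% CO2. Lysis buffer with SYBR Green was then added for 18 hr, and fluorescence was read at 485/535 nm.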
# [8] = HPAF-II Cancer Cell Toxicity qHTS against the NCATS CANVASS Library (AID 1347346); further: potency means the concentration at half of the fitted maximal effect; nearly all actives have a fitted effect of over 55% in size
# How it was run: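 HPAF-II cells at 1000 cells/well were treated with an 11-point concentration series for 72 hours at 37 degrees C. Viability read by CellTiter-Glo luminescence.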
# [9] = UWB1.289 Cancer Cell Toxicity qHTS against the NCATS CANVASS Library (AID 1347347); further: potency means the concentration at half of the fitted maximal effect; nearly all actives have a fitted effect of over 60% in size
# How it was run: (§2)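 Toxicity is measured over 72 h of compound exposure at 37 degrees C under 5% CO2. Each well holds 1000 cells, pre-incubated for 4 hours before dosing across an 11-point range. CellTiter-Glo luminescence gives viability.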
# [10] = Panc-1005 Cancer Cell Toxicity qHTS against the NCATS CANVASS Library (AID 1347349); further: potency means the concentration at half of the fitted maximal effect; nearly all actives have a fitted effect of over 60% in size
# How it was run: as §2
# [11] = target: Luciferin 4-monooxygenase (Photinus pyralis) (UniProt P08659); assay: Firefly luciferase counterscreen qHTS: Assay Interference Panel against the NCATS CANVASS Library (AID 1347363); further: potency means the concentration at half of the fitted maximal effect
# How it was run: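 Luminescence inhibition readout: compounds (11-point qHTS) sat 15 min at room temperature with substrate mix (0.013 mM luciferin and ATP), then firefly luciferase was added and signal read 5 min later.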
# [12] = qHTS for Hypoxia signaling pathway (HIF-1) antagonists against the NCATS CANVASS Library (AID 1347374)
# How it was run: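 HRE-bla ME-180 cells in medium with 0.5% dialyzed FBS received compounds (11-point series) plus CoCl2 (60 uM addition stock) for 17 hrs at 37C. Beta-lactamase activity read with CCF4 (405 nm ex, 460/530 nm em); CellTiter-Glo viability measured in same wells.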
# [13] = qHTS for Activators of p53 Stress Response Pathway screened against the NCATS CANVASS Library (AID 1347388); further: potency means the concentration at half of the fitted maximal effect
# How it was run: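 Beta-lactamase reporter driven by p53 response elements in HCT-116 cells, read as the 460 nm/530 nm emission ratio after CCF4 loading, following 16 h of exposure to an 11-point series. Cell viability was measured in the same wells by CellTiter-Glo luminescence.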
# [14] = qHTS assay for small molecule disruptors of mitochondrial membrane potential screened against the NCATS CANVASS Library (AID 1347389)
# How it was run: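 HepG2 cells (2,000/well) plated overnight, then exposed to compounds in 11-point qHTS series for 1 h at 37C before 30 min Mito-MPS dye; depolarization read as fall in red aggregate (590 nm) to green monomer (535 nm) fluorescence.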
# [15] = Secretion counterscreen for inhibitors of the SERCaMP assay screened against the NCATS CANVASS Library (AID 1347390);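 further: light from luciferase secreted into medium read as a measure of general secretion; potency means the concentration at half of the fitted maximal effect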
# How it was run: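 SH-SY5Y cells expressing constitutively secreted GLuc, 1000 cells/well, attached 4 h at 37C, then exposed to compounds (0.001 - 77 uM, 11-pnt series) for 20 h. Coelenterazine added; luminescence read to flag secretory-pathway interferers.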
# [16] = Redox Reaction Profiling qHTS: Assay Interference Panel against the NCATS CANVASS Library (AID 1347401); further: potency means the concentration at half of the fitted maximal effect
# How it was run: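 Cell-free redox surrogate: 5 uM resazurin + 200 uM DTT, 50 mM HEPES pH 7.3/50 mM NaCl; cpds pinned, 11-pt qHTS; Ex525/Em598 read t0 and t=15 min, dark.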
# [17] = Primary fluorescence-based thiol-reactive (MSTI) qHTS assay for identification of artifact compounds. (AID 1845221);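 further: potency means the concentration at half of the fitted maximal effect; thiol-reactive compounds lower the probe fluorescence signal; nearly all actives have a fitted effect of over 65% in size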
# How it was run: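 Curve-fitted percent inhibition (4-parameter Hill) derived from fluorescence, Ex 525/Em 598 nm, scaled with Acetyl-MSTI and MSTI; 1 h incubation at room temperature.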
# [18] = OV-KATE Cancer Cell Toxicity qHTS against the NCATS CANVASS Library (AID 1347345); further: potency means the concentration at half of the fitted maximal effect
# How it was run: as §2
# [19] = OV-SAHO Cancer Cell Toxicity qHTS against the NCATS CANVASS Library (AID 1347348); settings: OV-SAHO viability, CellTiter-Glo luminescence, 72 h; activity change, negative = cytotoxicity: at 38.3 µM (top of the series); further: potency means the concentration at half of the fitted maximal effect; nearly all actives have a fitted effect of over 55% in size
# How it was run: as §2
# [20] = COV-362 Cancer Cell Toxicity qHTS against the NCATS CANVASS Library (AID 1347352); further: potency means the concentration at half of the fitted maximal effect
# How it was run: as §1
# [21] = UWB1.289-WTBRCA1 Cancer Cell Toxicity qHTS against the NCATS CANVASS Library (AID 1347354); further: potency means the concentration at half of the fitted maximal effect
# How it was run: as §1
# [22] = KB-3-1 Cancer Cell Toxicity qHTS against the NCATS CANVASS Library (AID 1347366); further: potency means the concentration at half of the fitted maximal effect; nearly all actives have a fitted effect of over 75% in size
# How it was run: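 KB-3-1 cells (500 cells/well) in DMEM + 10% FBS were treated with compounds for 72 hr at 37C, 5% CO2. Viability was read as CellTiter-Glo luminescence after 10 minutes at room temperature.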
# [23] = MCF7 Cancer Cell Toxicity qHTS against the NCATS CANVASS Library (AID 1347369); further: potency means the concentration at half of the fitted maximal effect
# How it was run: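 MCF7, 500 cells/well; cpds 11-pt qHTS; 72 hr, 37C/5% CO2; CellTiterGlo ATP luminescence.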
# [24] = qHTS for Hypoxia signaling pathway (HIF-1) agonists against the NCATS CANVASS Library (AID 1347375); further: potency means the concentration at half of the fitted maximal effect
# How it was run: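 HRE-bla ME-180 cells (0.5% dialyzed FBS) were pre-incubated 5 hrs at 37C, then exposed to compounds in an 11-point series for 17 hrs. Read-out was CCF4-AM beta-lactamase FRET (460/530 nm emissions), with CellTiter-Glo viability in the same wells.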
# [25] = 10-beta competent E. coli microbial cell viability qHTS against the NCATS CANVASS Library (AID 1347376); further: 0% is about no effect; settings: E. coli 10-beta viability, BacTiter-Glo ATP luminescence, overnight; at 46.1 µM (top of the series)
# How it was run: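 10-beta competent E. coli (0.2 OD) were exposed overnight at 37C to compounds in an 11-point series. Viability was read as ATP-dependent BacTiter-Glo luminescence after 20 min at room temperature.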
# [26] = qHTS for H2AX Agonists against the NCATS CANVASS Library (AID 1347378); further: 0% is about no effect
# How it was run: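 CHO-K1 cells were plated overnight at 37C, then exposed to compounds (concentration series, 0.76% DMSO final) for 3 hr at 37C. Lysates received Eu-cryptate anti-pH2AX (S139) and d2 anti-H2AX antibodies; after 24 hr at room temperature, TR-FRET 665/620 nm ratio was read.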
# [27] = Vero-766 cells viability qHTS against the NCATS CANVASS Library: Counterscreen for Zika virus inhibition assay (AID 1347394)
# How it was run: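 Uninfected Vero 766 (African green monkey) cells, 1000/well, attached overnight, then exposed 72 h at 37C to compounds (11-point qHTS). Viability read by CellTiter-Glo luminescence; media-only wells served as 100% inhibition.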
# [28] = qHTS for inhibitors of Wild type Zika virus screened against the NCATS CANVASS Library (AID 1347396); further: potency means the concentration at half of the fitted maximal effect
# How it was run: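 Protection against wild-type Zika cytopathic effect is measured in African green monkey Vero 766 cells exposed to an 11-point compound series. Surviving cells are quantified by CellTiter Glo luminescence after 72 h.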
# [29] = qHTS for inhibitors of Rabies Virus screened against the NCATS CANVASS Library (AID 1347402; calls by dose curve; further: potency means the concentration at half of the fitted maximal effect)
# Tags describe the fitted curve by direction and shape.
# Sequence of UniProt P08659 (P08659 whole entry, looked up): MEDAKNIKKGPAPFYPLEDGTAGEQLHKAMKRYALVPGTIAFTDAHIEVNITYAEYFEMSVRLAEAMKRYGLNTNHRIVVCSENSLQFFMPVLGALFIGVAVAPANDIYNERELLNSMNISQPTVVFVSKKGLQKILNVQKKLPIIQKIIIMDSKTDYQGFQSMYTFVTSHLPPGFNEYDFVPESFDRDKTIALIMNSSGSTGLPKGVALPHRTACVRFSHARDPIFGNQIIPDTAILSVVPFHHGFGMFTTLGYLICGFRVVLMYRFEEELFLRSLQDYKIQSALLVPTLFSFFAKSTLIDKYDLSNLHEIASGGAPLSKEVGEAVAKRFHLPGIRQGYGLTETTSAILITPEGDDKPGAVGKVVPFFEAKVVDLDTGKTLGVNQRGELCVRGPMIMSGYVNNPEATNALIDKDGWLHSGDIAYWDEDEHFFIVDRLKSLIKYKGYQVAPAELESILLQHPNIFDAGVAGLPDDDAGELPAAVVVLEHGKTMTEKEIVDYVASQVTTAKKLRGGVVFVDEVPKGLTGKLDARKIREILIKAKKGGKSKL
smiles,measurement,setting,value
CC1=CC(=O)C2=C(C)C[C@H](O)[C@@H]3[C@H](OC(=O)[C@@H]3C)[C@@H]12,Potency,[1],active: 49.3 µM
same,Potency,[2],"inconclusive [cytotoxic, single point]"
same,Potency,[3],inactive
same,Potency,[4],inactive
same,Potency,[5],inactive
same,Potency,[6],"inconclusive [inhibitor, single point]"
same,Potency,[7],"inconclusive [cytotoxic, full curve]"
COC1=C(C2=C(OC)C(=O)c3cc4c(c(O)c3C2=O)C(=O)O[C@H](C)C4)C(=O)c2c(cc3c(c2O)C(=O)O[C@H](C)C3)C1=O,Potency,[1],active: 3.3 µM
same,Potency,[8],"inconclusive [cytotoxic, single point]"
same,Potency,[9],"inconclusive [cytotoxic, partial curve]"
same,Potency,[10],"inconclusive [cytotoxic, single point]"
same,Potency,[11],"inconclusive [inhibitor, partial curve, poor fit]"
same,Potency,[12],"inconclusive [inhibitor, single point]"
same,Potency,[6],"inconclusive [inhibitor, single point]"
same,Potency,[13],"inconclusive [activator, partial curve]"
same,Potency,[14],"inconclusive [inhibitor, partial curve]"
same,Potency,[15],"inconclusive [inhibitor, partial curve, poor fit]"
same,Potency,[16],active: 1.14 µM
C[C@@H]1C(=O)O[C@H]2[C@H](O)[C@@]34[C@@H]5OC(=O)[C@@]3(O[C@@H]3OC(=O)[C@@H](O)[C@@]34[C@H](C(C)(C)C)[C@H]5O)[C@@]12O,Potency,[1],inactive
same,Potency,[17],"inconclusive [inhibitor, partial curve]"
O=C(c1ccccc1O)c1[nH]c(Cl)c(Cl)c1-n1c(C(=O)c2ccccc2O)cc(Cl)c1Cl,Potency,[1],active: 2.47 µM
same,Potency,[18],active: 5.94 µM
same,Potency,[19],active: 2.11 µM
same,Potency,[20],active: 2.11 µM
same,Potency,[21],active: 13.3 µM
same,Potency,[22],active: 2.35 µM
same,Potency,[5],active: 5.9 µM
same,Potency,[23],"inconclusive [cytotoxic, partial curve]"
same,Potency,[24],"inconclusive [activator, single point]"
same,"activity change, negative = cytotoxic",[25],inactive: -9.46%
same,Potency,[26],inactive
same,Potency,[6],active: 15.3 µM
same,Potency,[13],"inconclusive [activator, partial curve]"
same,Potency,[14],active: 0.0933 µM
same,Potency,[15],active: 19.3 µM
same,Potency,[27],active: 1.32 µM
same,Potency,[28],"inconclusive [inhibitor, full curve]"
same,Potency,[29],"inconclusive [inhibitor, full curve]"
